# According to the supplement of paper PMC3334620:
# Over roughly 33,000 sequences, “E-score (-0.5 to 0.5)” has its median near -0.021; the highest 2% begin near 0.32. Some of the results follow.
# Biological target: T1, Zap1 (UniProt P47043)
# T1 sequence: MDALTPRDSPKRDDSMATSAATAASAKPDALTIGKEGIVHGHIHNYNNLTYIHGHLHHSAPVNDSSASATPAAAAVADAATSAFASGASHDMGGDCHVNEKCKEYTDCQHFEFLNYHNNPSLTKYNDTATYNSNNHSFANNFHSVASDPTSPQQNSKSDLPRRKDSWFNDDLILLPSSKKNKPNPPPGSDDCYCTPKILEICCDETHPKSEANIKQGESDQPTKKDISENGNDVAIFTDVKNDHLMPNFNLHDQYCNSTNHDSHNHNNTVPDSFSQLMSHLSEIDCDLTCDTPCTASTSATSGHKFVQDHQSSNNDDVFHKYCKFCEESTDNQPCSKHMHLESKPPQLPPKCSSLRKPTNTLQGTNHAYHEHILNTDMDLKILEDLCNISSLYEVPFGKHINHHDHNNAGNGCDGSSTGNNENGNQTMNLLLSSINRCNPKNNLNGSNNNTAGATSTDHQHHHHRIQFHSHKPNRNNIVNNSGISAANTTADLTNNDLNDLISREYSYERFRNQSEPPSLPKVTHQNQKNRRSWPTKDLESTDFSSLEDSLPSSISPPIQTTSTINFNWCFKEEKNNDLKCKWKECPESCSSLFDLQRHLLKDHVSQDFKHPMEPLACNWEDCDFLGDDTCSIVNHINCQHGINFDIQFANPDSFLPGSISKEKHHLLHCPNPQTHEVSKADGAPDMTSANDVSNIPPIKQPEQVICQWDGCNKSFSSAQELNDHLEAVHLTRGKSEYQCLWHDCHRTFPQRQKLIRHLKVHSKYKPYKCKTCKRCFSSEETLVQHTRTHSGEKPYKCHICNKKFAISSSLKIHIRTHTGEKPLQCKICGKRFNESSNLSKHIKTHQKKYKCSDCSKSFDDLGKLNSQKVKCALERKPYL
# Assay: PBM E-score (8-mer binding enrichment) (E-score (-0.5 to 0.5)); higher = stronger / more preferred TF binding; most listed sequences are background and not binding sites
# Conditions: protein concentration: 200 nM; construct: GST-full length
# Outline: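 The E-score, a modified Wilcoxon-Mann-Whitney statistic, was computed by the Universal PBM Analysis Suite for every ungapped eight-base word pooled with its reverse complement. Scans behind it were normalised with masliner after bound GST-tagged yeast transcription factors were detected with fluorescent anti-GST. The proteins, at about 100-200 nM, had been applied to universal all-10-mer Agilent arrays made double-stranded by primer extension.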
row,Sequence,PBM E-score
1,AAGCCCTC,-0.0682
2,CCGCGGGC,0.0551
3,CTAAATGA,0.00253
4,ATCAAGCC,-0.122
5,ACACATAC,-0.0756
6,AAAGTGGT,0.234
7,ATCTCTGA,-0.025
8,CCTAACCG,0.0149
9,GCTCTTCC,-0.0754
10,AAACCGAC,0.00118
11,CAAAACGG,0.099
12,ACTTGAAG,-0.0917
13,CGTGCCGC,-0.0682
14,ACACTGAG,-0.0926
15,ATTCATCG,-0.0186
16,GCAAACTA,0.127
17,CAGAAACA,0.267
18,AATCCGAT,0.106
19,GGACTGAA,0.00449
20,CCAGTGTC,-0.0887
21,ACACCTAA,0.0902
22,AGCGGTTC,0.164
23,ACGGAATG,-0.188
24,ACAGATGA,-0.133
25,AACACCCT,0.288

row,Sequence,PBM E-score
1,ACGGGGAA,-0.0799
2,AAACCAGA,0.165
3,AGCGATGC,-0.276
4,GCGTGGCC,0.166
5,ATTGGTAA,0.188
6,AGAATCAT,-0.0735
7,CTCGAGCA,0.00245
8,ACAAGTGC,-0.311
9,CGGCCTTA,0.0854
10,CTTCATCC,-0.303
11,GCACAGAA,-0.0835
12,ACTGGGAC,-0.0779
13,AGACGATC,-0.287
14,CTGCGTTC,0.0144
15,CATACCAA,0.0873
16,CCGGAGTA,0.013
17,GCACAGCA,-0.126
18,AACAACGT,-0.209
19,CCCGCGGG,0.247
20,ATCGTCTG,-0.168
21,GGACCGTA,-0.0636
22,ACGTGCCA,-0.203
23,GGCGGCCA,-0.00361
24,ATATTCGG,-0.0284
25,ATTTACGC,0.0102

row,Sequence,PBM E-score
1,TATACTAA,0.0714
2,GCTTGCTA,-0.16
3,AGTTGAGA,-0.158
4,CGTCAGTC,-0.206
5,GGCGCCAA,-0.0708
6,CGCACACA,-0.112
7,AAGTTTCA,0.142
8,CCCGACCC,0.136
9,ACTATATA,0.177
10,ACCGACAG,0.0825
11,ACCGAGTC,-0.145
12,CTGATAAA,0.121
13,AGGCCCAG,-0.304
14,GATAGCCA,-0.0965
15,CATGCTAC,-0.0845
16,CGTGCCCC,-0.311
17,CGCTACGA,-0.0679
18,CTGTGTGC,-0.142
19,CTCGAACC,0.0198
20,CACAGGAG,-0.0885
21,TAACAGTA,0.141
22,ACAGTCAA,-0.0971
23,CATTGTCG,-0.0394
24,AACACAAA,0.195
25,TCAAAGCA,0.0311

row,Sequence,PBM E-score
1,ACGTTACT,0.143
2,AGAGTAAA,0.106
3,GCGAGCTA,-0.123
4,ATAGTAAC,0.279
5,GGACGCAA,-0.12
6,ATGCGTCC,-0.215
7,CTGTGAAA,0.194
8,ATAGTTCG,0.0342
9,ACGCACGA,0.0571
10,CAGGCTAG,-0.141
11,CGTGTCAG,-0.0198
12,AAATTCCT,-0.0586
13,CCTCCAGC,-0.207
14,ATATACAT,0.0702
15,GAAACTAC,0.022
16,CATTGTAG,-0.0629
17,CTTGTTCC,-0.0975
18,ATTGTTTA,0.124
19,GAACACTA,0.0651
20,AGGTATTG,0.243
21,ACGACCTC,0.31
22,ACCAAAAC,0.207
23,ATGTCTCC,-0.249
24,ACCGGGAG,-0.081
25,TAACACTA,0.283

row,Sequence,PBM E-score
1,GGACCGGA,0.0344
2,AGGACCGG,-0.0908
3,GAATATCA,-0.106
4,CTGGACGC,-0.237
5,CGTGAAGA,0.00795
6,GGCAGCCA,-0.0786
7,CCTTCTTA,-0.0571
8,CAGATCCC,-0.232
9,CACAACCG,0.289
10,ATAAGATC,-0.0675
11,ATGTGGAC,-0.144
12,CTACTTGA,-0.122
13,GCTCTAGA,-0.277
14,ATGGACGA,0.07
15,TATTCCAA,0.0766
16,GTGGCGTA,-0.0831
17,TCGACCAA,0.0837
18,GCGTAGAC,-0.145
19,CTGTTACC,0.248
20,ACCGGCGC,-0.0444
21,ATGTTGTG,0.179
22,CATTCTTA,-0.0384
23,AGGAACTG,-0.148
24,ACCGCCAA,0.0445
25,CTCTGATC,-0.154

row,Sequence,PBM E-score
1,ATCCAAGA,0.0735
2,CATGCTGG,-0.0654
3,ACTTCGAC,-0.0812
4,CGCCAAAA,0.0978
5,ACGACAGA,-0.172
6,GACGAGCA,-0.253
7,ACTCCGCG,-0.106
8,GTGGAATA,-0.0633
9,TGAGATAA,-0.012
10,CCGTGCTC,-0.121
11,CCTCGTCC,-0.165
12,CCTCTGAA,-0.072
13,GGTATGAC,0.152
14,ATATGTTC,-0.0732
15,TTACAAAA,0.181
16,ATAATCAC,0.109
17,GGCCCAGA,-0.374
18,AAGCCGAT,-0.128
19,AGAAGATC,-0.214
20,CCCCGGGA,0.116
21,ACTACCCA,0.291
22,CCTGCGGC,-0.0665
23,AAACCACC,0.193
24,CCGAGCTC,-0.0305
25,AGCAACAT,-0.0906

row,Sequence,PBM E-score
1,CCAGTGCA,-0.0265
2,AGGTCATA,0.347
3,GGACTAAC,-0.0322
4,CAGTCGAG,-0.187
5,ACATAAAT,0.0708
6,GACCTGGA,0.0391
7,AACCTCCT,0.158
8,AAAGAATG,0.183
9,GCCCCACC,0.283
10,CAATCCGA,0.07
11,AGTGGCCC,0.108
12,AGCCTAAC,0.0792
13,CCTCAGGC,-0.0942
14,CGATAAAA,0.123
15,ACCCTTAC,0.29
16,CTTTCAAC,0.0851
17,AACCTTGC,0.305
18,ACATATGA,0.0879
19,GTCGTCCA,-0.123
20,AGGGTTAG,0.431
21,CGGACTCC,-0.104
22,AAGACCGG,0.102
